{"source": "the supplement of paper PMC11417369", "note": "± gives the standard deviation of the averaged measurements. This is one part of the list."}
{"test_system": "PfAP2-I AP2 domain 3 (GST-tagged)", "assay": "gcPBM binding intensity (ln(normalized median fluorescence intensity)); higher = stronger DNA binding", "summary_of_the_method": "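DNA-binding domains from P. falciparum, fused to GST and produced in E. coli, were put on an Agilent 4 × 180k double-stranded probe array for 1 h in 1× PBS holding 1% milk, 0.2 mg/ml BSA, 0.5% salmon testes DNA and 0.03% Triton X-100. Probes were primer-extended, 36 bp long and drawn from intergenic genomic regions, with negative controls included. After Alexa488 anti-GST antibody detection and a 488 nm scan, binding intensity was set as the highest Masliner-normalised natural-log median intensity across replicate spots of either probe orientation.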"}
{"sequence": "ATAAAAATAAAAAACTGTACATACAAGATGTTACAG [XGTACX_site6690]", "gcPBM binding intensity (ln)": "7.49 ± 0.48"}
{"sequence": "ATGCTTCCTTAGGAATGTACACACATATATAATATG [XGTACX_site873]", "gcPBM binding intensity (ln)": "7.81 ± 0.61"}
{"sequence": "TAAATATTTAAATATTGTACTAGGTATAATTGAATA [XGTACX_site3604]", "gcPBM binding intensity (ln)": "7.65 ± 0.37"}
{"sequence": "TTATTGTACTTGCTCGCATGCAATAAAAATATATTA [TGCATGCA_site580]", "gcPBM binding intensity (ln)": "7.93 ± 0.32"}
{"sequence": "GTATATATTAAAAAAAAAAAAAAAAAATTAAAATTA [CACACA_negctrl_site572]", "gcPBM binding intensity (ln)": "7.14 ± 0.33"}
{"sequence": "TAGACTGGACATTAATGTACATAAATATATATGTAT [XGTACX_site7726]", "gcPBM binding intensity (ln)": "7.68 ± 0.49"}
{"sequence": "TATAAGAAAAATAACACACACATAAACATATATACA [CACACA_site2785]", "gcPBM binding intensity (ln)": "7.87 ± 0.42"}
{"sequence": "AAAAAAAAAATTCATTGTACATATATATATATATAT [XGTACX_site8346]", "gcPBM binding intensity (ln)": "9.7 ± 0.5"}
{"sequence": "GGAATATTAATAAGAGTGCATTTTGTATTCAATATG", "gcPBM binding intensity (ln)": "9.52 ± 0.13"}
{"sequence": "ATAAGAAGAAGAAAAACACACATATGTAGATATATA [CACACA_site7469]", "gcPBM binding intensity (ln)": "7.81 ± 0.65"}
{"sequence": "ATATATATATATATATGTACTTATTTATATATTTAT [XGTACX_site7811]", "gcPBM binding intensity (ln)": "9.39 ± 0.93"}
{"sequence": "TGGTTATTTATCTTTATTATAAATATTTACAAATAA [CACACA_negctrl_site1773]", "gcPBM binding intensity (ln)": "7.61 ± 0.38"}
{"sequence": "TTCTTTTTAAATTACACACACATATATATCTGTATA [CACACA_site5863]", "gcPBM binding intensity (ln)": "8.05 ± 0.59"}
{"sequence": "ATGAACATACAATATACACACATATAGATTTATATT [CACACA_site6524]", "gcPBM binding intensity (ln)": "7.68 ± 0.61"}
{"sequence": "TCATTATTAATATGTAGTACATTATATGATATGTAT [XGTACX_site8978]", "gcPBM binding intensity (ln)": "7.99 ± 0.071"}
{"sequence": "TAAAGGATTTTCGAAGCATGCCACCTGTGACATACT [TGCATGCA_site130]", "gcPBM binding intensity (ln)": "7.42 ± 0.81"}
{"sequence": "TTTATACAATTAGACACACACAAAAAGTATATATAT [CACACA_site1082]", "gcPBM binding intensity (ln)": "8.05 ± 0.67"}
{"sequence": "CAAATACCCGGACACACACACACAAAAAAAAAAAAA [CACACA_site4441]", "gcPBM binding intensity (ln)": "8.32 ± 0.49"}
{"sequence": "ATGGGTATATTTCCACGTACAAAAAATCCGAATTGC [XGTACX_site1490]", "gcPBM binding intensity (ln)": "8.04 ± 0.57"}
{"sequence": "ATATAATTACATTGATGTACACGAAATGATTAACAT [XGTACX_site5183]", "gcPBM binding intensity (ln)": "8.78 ± 0.83"}
{"sequence": "CATTCAAAGAAAAACTGTACGTGTAGCAAACGTCAT [XGTACX_site2576]", "gcPBM binding intensity (ln)": "7.76 ± 0.71"}
{"sequence": "ATATCAATATAAAGTACACACTATAGTATGTATTAT [CACACA_site5286]", "gcPBM binding intensity (ln)": "7.75 ± 0.38"}
{"sequence": "ATTATTAATAATTGTGTGCACAAATATTTATATGCT", "gcPBM binding intensity (ln)": "10.815 ± 0.007"}
{"sequence": "ATATTGTATTATCTTTATGTACCAAAAAAAAAAAAA [CACACA_negctrl_site1036]", "gcPBM binding intensity (ln)": "8.15 ± 0.68"}
{"sequence": "ATTATCCATCAAAAGGTGCAAATTTTTAATTATAAA [GTGCAC_site9932]", "gcPBM binding intensity (ln)": "10.5 ± 0.49"}
{"sequence": "AAAGATGATAAAATATGTACACACAGTTTATACATT [XGTACX_site8703]", "gcPBM binding intensity (ln)": "7.67 ± 0.33"}
{"sequence": "TGAGTCTTTTACATTGCACACACATTTCTTTCCTTT [CACACA_site8978]", "gcPBM binding intensity (ln)": "8.87 ± 0.51"}
{"sequence": "TATATATATATATGTAGTACTTTACAAAATAATTCG [XGTACX_site5322]", "gcPBM binding intensity (ln)": "9.47 ± 0.42"}
{"sequence": "AATAAATTCATGATAGTGCAAAAATTATTTTTGTTA", "gcPBM binding intensity (ln)": "9.49 ± 0.028"}
{"sequence": "GCATAACCTTTATATTGTACATATACCTTTATTGTT [XGTACX_site6046]", "gcPBM binding intensity (ln)": "8.33 ± 0.88"}
{"sequence": "TTATTTATACGCTATGAGTTTGATACAAACAATTAA [XGTACX_negctrl_site456]", "gcPBM binding intensity (ln)": "7.78 ± 0.39"}
{"sequence": "TTTTTACGGAATTAGAGAAAAGAAATAAAAAAAAAA [XGTACX_negctrl_site436]", "gcPBM binding intensity (ln)": "7.89 ± 0.76"}
{"sequence": "TTTATATTTATGTAGGTGCATTTGTTTACAACATAT [GTGCAC_site9511]", "gcPBM binding intensity (ln)": "10.8 ± 0.71"}
{"sequence": "TAGTTATCACATTGCACACACATTTCCTTTTACATT [CACACA_site7589]", "gcPBM binding intensity (ln)": "9.03 ± 0.18"}
{"sequence": "TTTTTTGTTATTTTCCGTTTTTTTCCATTATAATTT [GTGCAC_negctrl_site461]", "gcPBM binding intensity (ln)": "8.19 ± 0.49"}
{"sequence": "TATTCAAAGAAAAACTGTACGTGTAGCCTACATCCT [XGTACX_site7707]", "gcPBM binding intensity (ln)": "8.62 ± 1.1"}
{"sequence": "ACGTTAAAAACAAGTTGTACACAATAAATTATTCTT [XGTACX_site6321]", "gcPBM binding intensity (ln)": "8.19 ± 0.16"}
{"sequence": "ATCTATTCACACTTTTAAAAATTAAATATATTATAT [TGCATGCA_negctrl_site610]", "gcPBM binding intensity (ln)": "8.35 ± 0.42"}
{"sequence": "TAATTTTTTTTTTATAGTACACATATTAAAGAATTA [XGTACX_site2485]", "gcPBM binding intensity (ln)": "7.87 ± 0.3"}
{"sequence": "AATAAAAAAAAAATATATATTTTTTTTTTTTTTTTT [CACACA_negctrl_site54]", "gcPBM binding intensity (ln)": "8.86 ± 0.47"}
{"sequence": "ATATATATAAACAAAAGTACATATATAAATTCATTT [XGTACX_site3482]", "gcPBM binding intensity (ln)": "8.31 ± 0.54"}
{"sequence": "TTAAAGTTACATTCGACACACACATAACAACTAAAT [CACACA_site9130]", "gcPBM binding intensity (ln)": "7.9 ± 0.51"}
{"sequence": "TCTTATATTATATTGTGTATTAAAATTTAACTTCAA [TGCATGCA_negctrl_site565]", "gcPBM binding intensity (ln)": "7.83 ± 0.58"}
{"sequence": "ATATATGTATATATGTACATGAATATATAAAGAAAA [CACACA_negctrl_site315]", "gcPBM binding intensity (ln)": "7.99 ± 0.58"}
{"sequence": "GTTTATATTTAATTTTTTTGTTTTTTTGTGTAATTC [XGTACX_negctrl_site194]", "gcPBM binding intensity (ln)": "7.55 ± 0.89"}
{"sequence": "TATTTATACTAATATGCATGTAATCGAAATACAGCT [TGCATGCA_site457]", "gcPBM binding intensity (ln)": "7.63 ± 0.49"}
{"sequence": "ACAAATAAATAAATATGTACTTAATTATATAATTGA [XGTACX_site5626]", "gcPBM binding intensity (ln)": "7.57 ± 0.37"}
{"sequence": "GACCATGTTAACAAAGCATGCATCTCTATATGTTTA [TGCATGCA_site358]", "gcPBM binding intensity (ln)": "7.74 ± 0.84"}
{"sequence": "TTATTTTATAAATCGAAAACAAACAAAAAAAAGATA [XGTACX_negctrl_site178]", "gcPBM binding intensity (ln)": "7.92 ± 0.52"}
{"sequence": "TTGCTGTATTTATTTTGTACACATTTGGCATTATAT [XGTACX_site3408]", "gcPBM binding intensity (ln)": "8.36 ± 0.54"}
{"sequence": "AAAAAAAAAAGAAAGAGTACTTTTTCAATACATATA [XGTACX_site2468]", "gcPBM binding intensity (ln)": "7.45 ± 0.29"}
{"sequence": "AAGAAAAACAATACGTGTACCAAGCATCCTACTAAC [XGTACX_site6628]", "gcPBM binding intensity (ln)": "7.86 ± 0.56"}
{"sequence": "ACATAAAATAAATATACACACATATGTATATATCAT [CACACA_site7424]", "gcPBM binding intensity (ln)": "7.62 ± 0.47"}
{"sequence": "TTTGTAGCACTTAAGAGTACAAAATGTATAAGATTT [XGTACX_site2321]", "gcPBM binding intensity (ln)": "8.15 ± 0.13"}
{"sequence": "TTAATATAATTAAAATGTACTTATTTGTAAACATTA [XGTACX_site6313]", "gcPBM binding intensity (ln)": "7.43 ± 0.36"}
{"sequence": "GAGGATCATCAATTCACACACATAAAAATGAAGTTA [CACACA_site3078]", "gcPBM binding intensity (ln)": "7.42 ± 0.64"}
